Assay results reported in PubChem BioAssay AID493208 (National Center for Advancing Translational Sciences (NCATS), 2011).
About 340 (0.77%) of roughly 44,000 compounds were called active. Another 5% or so got no clear call; they are omitted. Calls come from the whole dose curve; as a rule, active = well fitted inhibition curve with a large enough effect; inconclusive = small, poorly fitted or top-dose-only effect; inactive = flat fitted curve, though single readings scatter. The list shows a part of the results.

Assay: Acumen qHTS Assay for Inhibitors of the mTORC1 Signaling Pathway in MEF (Tsc2-/-, p53-/-) Cells: Sytravon;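 note: plate controls were DMSO for no effect and rapamycin for full effect; nearly all actives have a fitted effect of over 50% in size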
Details: phospho-rpS6 immunofluorescence/PI, 24 h; series mostly up to 38.3 µM; activity change, negative = inhibition: at the top concentration
Outline: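 Plate MEFs (Tsc2-/-, p53-/-, empty vector) in DMEM/10% FBS; after 24 h add compound, incubate 24 h at 37 degree Celsius; fix in PFA/TX-100, block, stain phospho-rpS6 and 10 uM PI; scan at 488 nm; report % positive cells.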

SMILES	activity change, negative = inhibition
CCC(C(=O)Nc1cc(C)ccc1C)n1c(=O)c(C(F)(F)F)nc2ccccc21 (stereo unspecified)	inactive: -1.81%
COCC(=O)n1nc(-c2ccco2)nc1NCc1ccccc1Cl	inactive: -5.52%
COc1cc(OC)cc(C(=O)Nc2ccc(-c3nc4ccccc4s3)cc2C)c1	inactive: 1.32%
Cc1cc(C)n(-c2nc(C)c(C)c(=O)n2CC(=O)Nc2ccc([N+](=O)[O-])cc2)n1	inactive: -1.07%
COc1ccccc1CNC(=O)CCc1c(C)c2cc3c(C)c(C)oc3cc2oc1=O	inactive: 3.07%
CCc1nn(CC(=O)NCc2ccco2)c(=O)c2cc3c(OC)cccc3n12	inactive: -3.69%
CCOC(=O)c1ccc(NC(=O)Cn2cc(C(=O)C3CC3)c3ccccc32)cc1	inactive: 11.8%
COc1ccc(CCNC(=O)c2ccc3c(c2)N(Cc2ccc(F)cc2)C(=O)c2ccccc2S3(=O)=O)cc1OC	inactive: -0.559%
Cc1c(C(=O)Nc2cccc(C(F)(F)F)c2)sc2nc[nH]c(=O)c12	inactive: -10.3%
Cc1ccc(-n2ncc3c(NCCCN4CCOCC4)ncnc32)cc1C	inactive: 6.86%
CCOC(=O)c1ccc(NC(=O)CCCn2c(=O)c3cccn3c3ccccc32)cc1	inactive: 11.1%
COc1ccc(OC)c(C2=NS(=O)(=O)N(C)C(C(=O)Nc3ccc(F)cc3F)=C2)c1	inactive: 0.4%
O=C(CSc1cn(CC(=O)N2CCCCC2)c2ccccc12)Nc1ccccc1	inactive: -4.85%
N#Cc1nc(-c2ccc(COc3ccc(Cl)cc3)o2)oc1N1CCC(C(N)=O)CC1	inactive: 0.554%
Cc1ccc(C)c(NC(=O)C2CCCN(c3ncnc4onc(C)c34)C2)c1 (stereo unspecified)	inactive: -2.36%
O=C(Cn1c(=O)n(-c2ccccc2)c(=O)c2c3c(sc21)CCCC3)Nc1ccc(F)cc1F	inactive: 4.05%
Cc1cc(=O)n(Cc2ccc(Cl)cc2)c2c1c(C)nn2-c1ccccc1	inactive: 0.437%
COc1ccc(OC)c(S(=O)(=O)NCCS(=O)(=O)N2CCN(c3ccccc3)CC2)c1	inactive: -0.217%
COc1cccc(CNC(=O)c2cccc(-n3c(C)nc4cccnc43)c2)c1OC	inactive: -4.78%
O=C(NCc1noc2ccccc12)N1CCN(c2ccccc2)CC1	inactive: -1.49%
CCc1ccccc1NC(=O)N1CCCn2nc(C)cc21	inactive: -3%
O=C(NCC(c1ccco1)S(=O)(=O)c1cccs1)c1ccc(F)c(F)c1 (stereo unspecified)	inactive: -4.93%
Cc1nc(-c2ccccc2)sc1-c1ccc(SCC(=O)NCc2ccccc2Cl)nn1	inactive: 1.69%
CC1CCN(c2nn3c(=O)c(C(=O)NC(C)C)cnc3s2)CC1	inactive: 0.892%

SMILES	activity change, negative = inhibition
Cc1nn(C)c2c1c(-c1ccccc1)cc(=O)n2CC(=O)NC(C)c1ccccc1 (stereo unspecified)	inactive: 3.33%
CCCOc1ccc(C2c3c(-c4c(C)cc(C)cc4O)n[nH]c3C(=O)N2CCO)cc1 (stereo unspecified)	inactive: 0.458%
CCOc1ccc(-c2cc3nc(C4CCN(C(=O)OC(C)(C)C)CC4)c(C(=O)Nc4cc(OC)ccc4OC)cn3n2)cc1	inactive: 1.78%
Cc1ccc(Cl)cc1NC(=O)c1sc(-n2nc(C)c(Cc3ccc4c(c3)OCO4)c2C)nc1C	inactive: 0%
O=C(Cn1c(=O)n(Cc2ccccc2)c(=O)c2sc3ccccc3c21)Nc1ccccc1	inactive: -12.5%
CCCCCn1c(CN2CCN(c3ccc(OC)cc3)CC2)nc2c1c(=O)[nH]c(=O)n2C	inactive: 3.71%
Cc1ccc(Cl)cc1NC(=O)Nc1cccc(OCc2cc(=O)n3ccccc3n2)c1	inactive: -11.7%
COc1ccc(-n2c(-c3ccco3)nc3c(cnn3-c3ccccc3Cl)c2=O)cc1	inactive: 1.76%
COc1ccc(C)cc1NC(=O)CC1NCCNC1=O (stereo unspecified)	inactive: 1.01%
Cc1cc(=O)n(Cc2ccccc2)c2c1c(C)nn2C	inactive: -19.6%
COCCNC(=O)c1ccc2nc(Cc3ccccc3)oc2c1	inactive: 3.95%
CC(C)N(CCCNC(=O)Cn1ncc2c([nH]c3ccccc32)c1=O)Cc1ccccc1	inactive: -9.26%
Cc1cc(C)c2c(=O)cc(C(=O)Nc3sc4c(c3C(=O)NCC3CCCO3)CCCC4)oc2c1 (stereo unspecified)	inactive: -3.89%
Cc1ccc(Nc2nnc(-c3ccc(C)c(S(=O)(=O)N4CCOCC4)c3)c3ccccc23)cc1	inactive: 6.28%
CCC(=O)C1=C(c2ccc(OC)c(OC)c2)N(C(=O)CC)n2c(nnc2-c2ccc(C)cc2)S1	inactive: -0.117%
CC(=O)c1ccc(N2CCN(c3ccc4cc(S(=O)(=O)N5CCCCC5)ccc4n3)CC2)cc1	inactive: 3.25%
COc1ccc(-c2nc(CS(=O)(=O)CC(=O)NCCc3ccc(C)cc3)c(C)o2)cc1	inactive: -5.05%
CCOC(=O)c1ccc(NC(=O)CSc2nc3ccccc3c(=O)n2CCC(=O)NC2CCCCC2)cc1	inactive: 1.63%
COc1ccc(OC)c(CNS(=O)(=O)c2ccc(-c3coc(C)n3)cc2)c1	inactive: -22.1%
CC(=O)c1cc(-c2ccccc2)n(CC(=O)Nc2ccc(C)c(C)c2)c1C	inactive: 1.16%
CCOc1ccc(CNC(=O)CS(=O)(=O)c2cccc3nsnc23)cc1	inactive: -4.4%
COc1ccccc1-c1nc(SCC(=O)NCc2ccccc2)c2c(=O)n(C)c(=O)n(C)c2n1	inactive: 3.08%
COc1ccccc1-c1noc(-c2ccc(NC3CCCC3)c([N+](=O)[O-])c2)n1	inactive: -4.8%
Cc1cc2nc(-c3ccc(NC(=O)c4ccccc4F)cc3)oc2cc1C	inactive: 8.85%

SMILES	activity change, negative = inhibition
Cc1cccc(C(=O)Nc2ccc3nc(SCCOc4ccccc4)sc3c2)c1	inactive: 0.479%
COc1ccc(CCNc2nc(SCc3ccc(Cl)cc3)nc3ccccc23)cc1OC	inactive: -0.625%
Nc1ncc(S(=O)(=O)Nc2ccc(F)cc2F)cn1	inactive: -2.1%
COc1ccc(C2C=C(c3ccccc3)Nc3nc(NC(=O)/C=C/c4ccccc4Cl)nn32)cc1 (stereo unspecified)	inactive: 5.53%
CCc1cnc2c(c1SCC(=O)NCc1ccc(F)cc1)c(=O)n(C)c(=O)n2C	inactive: 0.166%
Nc1c(C(=O)Nc2cccc(F)c2)c2ccccn2c1C(=O)c1ccccc1	inactive: -0.225%
CCOC(=O)c1c(NC(=O)COc2cccc(C)c2C)sc(C(C)=O)c1C	inactive: 12.7%
COc1ccc(N2CCN(C(c3ccccc3F)c3sc4nc(-c5ccco5)nn4c3O)CC2)cc1 (stereo unspecified)	inactive: -7.53%
COc1ccc(Cl)cc1NC(=O)Cn1c(=O)c(-c2ccccc2NC(C)=O)nc2ccccc21	inactive: -16.6%
Cc1cc(C)c2c(c1)c(C)cc1nnc(SCC(=O)c3ccc(F)cc3)n12	inactive: -1.38%
COC(=O)c1ccccc1NC(=O)Cn1c(=O)cc(C)c2c(C)nn(C)c21	inactive: -1.33%
CCCCC(=O)N1CCc2cc(OC)c(OC)cc2C1COc1ccc(OC)cc1 (stereo unspecified)	inactive: 8.44%
COc1ccc(NC(=O)CN2C(=O)COc3ccc(S(=O)(=O)N4CCCCC4)cc32)cc1OC	inactive: -1.17%
Cc1ccc(C)c(Cn2c(C(=O)O)c(CNCc3cccs3)c3ccccc32)c1	inactive: -0.581%
Cc1cc(-c2ccccc2)n2nc(-c3ccccc3)cc2n1	inactive: -8.32%
CN(C)CCNC(=O)C(=O)NCC(c1ccc2c(c1)OCO2)N1CCOCC1 (stereo unspecified)	inactive: 0.4%
Cc1c(C(=O)O)oc2c1-c1nn(Cc3ccc(Cl)cc3)cc1CC2	inactive: -1.39%
CCOc1ccc(C(c2c(O)cc(C)n(Cc3ccco3)c2=O)N2CCCCC2)cc1 (stereo unspecified)	inactive: -8.87%
Cc1ccc2cccc(NC(=O)C(C)Oc3ccc(Cl)cc3Cl)c2n1 (stereo unspecified)	inactive: -15.2%
COc1cccc(CNS(=O)(=O)c2ccc3c(c2)C(C(C)C)C(=O)N3)c1 (stereo unspecified)	inactive: -24.3%
Cc1ccc(NC(=O)CC2Sc3ccc(C(F)(F)F)cc3NC2=O)cc1 (stereo unspecified)	inactive: -16.8%
COc1ccccc1C(=O)Nc1c(C(=O)Nc2ccccc2F)oc2ccccc12	inactive: -10.7%
CC(=O)c1ccc(NC(=O)CN(C)S(=O)(=O)c2cnc[nH]2)cc1	inactive: -2.51%
Cc1cc(Cl)ccc1OCC(=O)N1CCC(c2nc3ccccc3s2)CC1	inactive: -9.18%

SMILES	activity change, negative = inhibition
COc1ccc(CNC(=O)Nc2cn(CC(C)C)c(=O)c3ccccc23)cc1	inactive: 1.95%
Cc1ccc(OCCSc2nc(C)c(Cc3ccccc3)c(=O)[nH]2)cc1	inactive: -0.78%
Cc1cc(C)c(NC(=O)CSc2nncn3c2cc2oc(C)cc23)c(C)c1	inactive: 0.774%
O=C(CCCc1ccccc1)NC1CC(=O)N(c2ccc(F)cc2)C1 (stereo unspecified)	inactive: 2.12%
CC(=O)c1cccc(NS(=O)(=O)c2cc3c(cc2C)N(C(C)=O)CCO3)c1	inactive: 1.6%
Cc1ccc(NC(=O)N2CCC(CN3CCCC3)CC2)c(C)c1	inactive: -9.17%
Cc1ccc(-c2nc(C(=O)NCc3ccccc3Cl)c3n2CCCCC3)cc1	inactive: -1.11%
CCc1cccc(NC(=O)c2ccc(NC(=O)N3CCSc4ncccc43)cc2)c1	inactive: 0.143%
Cc1ccc(NC(=O)N2CCN(c3cc(-c4noc(C)n4)ccc3C)CC2)c(F)c1	inactive: -11.9%
CCC(=O)Oc1ccc(C2Nc3ccccc3-c3nnc(SC)nc3O2)cc1 (stereo unspecified)	inactive: -2.75%
Cc1ccc(S(=O)(=O)Nc2cc3c(cc2N2CCOCC2)n(C)c(=O)n3C)cc1	inactive: -17.5%
Cc1ccc2nc(-c3cc(NC(=O)COc4ccc(C)c(C)c4)ccc3Cl)oc2c1	inactive: -15.8%
COC(=O)C1CCN(S(=O)(=O)c2ccc(N3CCCCS3(=O)=O)cc2)CC1	inactive: 0%
COC(=O)c1cc(C)nc2c1c(=O)nc(SCc1ccccc1C)n2C1CC1	inactive: 5.22%
Cc1cccc(NC(=O)C(Cc2ccccc2)NS(=O)(=O)c2ccc3c(c2)c(=O)n(C)c(=O)n3C)c1 (stereo unspecified)	inactive: -7.47%
Cc1ccc(C(=O)NCC(c2ccc3c(c2)OCO3)N2CCOCC2)cc1 (stereo unspecified)	inactive: -1.63%
CCc1nn(CCCC(=O)N2CCN(c3cccc(OC)c3)CC2)c(=O)c2cc3occc3n12	inactive: -7.49%
Cc1c(-c2nc(-c3ccc4c(c3)OCO4)no2)nnn1-c1ccc(C(C)C)cc1	inactive: 4.79%
Cc1ccc(S(=O)Cc2nc(-c3ccc(C(=O)NCc4cccc(C)c4)cc3)oc2C)cc1 (stereo unspecified)	inactive: 1.25%
O=C(CCn1nc(-c2ccc(Cl)cc2)ccc1=O)NCCc1ccccc1	inactive: 6.78%
CC(=O)Nc1c(C)nn(-c2ccccc2)c1N1CCC(C(=O)NCc2ccccc2Cl)CC1	inactive: -18.1%
CCOC(=O)c1c(NC(=O)CSc2cn(CCNC(=O)c3c(F)cccc3F)c3ccccc23)sc2c1CCC2	inactive: 4.83%
COc1ccc(CCN2C(=O)c3[nH]nc(-c4ccccc4O)c3C2c2ccc(OC)c(OC)c2)cc1 (stereo unspecified)	inactive: -24%
CCOC(=O)COc1ccc(F)cc1C(=O)c1ccn2nc(-c3ccc(Cl)cc3)cc2n1	inactive: 1.71%
